From PubChem BioAssay AID662 (National Center for Advancing Translational Sciences (NCATS), 2007)
The campaign covered roughly 71,000 compounds. About 1,800 (2.5%) were called active. Inconclusive results, whose numbers are uncertain, are shown with a selection of clear calls. Calls follow the shape of the dose curve; as a rule, active = well fitted activation curve with a large enough effect in the signal ratio, with a control signal flat (not every such curve was filed as active); inconclusive = small, poorly fitted or top-dose-only effect, or effect the other way, or a change in a side signal; inactive = flat fitted curve, though single readings scatter; the % refers to the signal ratio. A potency beside an inconclusive call is a rough fit, not a confirmed value.

Assay: Cell signaling CRE-BLA (Fsk stim); as to activity change, negative = inhibition: % of control where 0% means no effect
Details: CHO CRE-bla reporter (cAMP response element driving beta-lactamase), forskolin EC10, beta-lactamase ratio; activity change, negative = inhibition: at 38.2 µM (top of the series) unless noted
Summary of the method: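 qHTS titration format; CRE-bla CHO reporter; stimulus EC10 NKH 477, a water-soluble forskolin. Read: CCF4 460/530 nm ratio. Potency expressed as AC50 for activators or inhibitors.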
Potency is read from the fitted curve at half-maximal effect; tags tell the direction and shape of the fitted curve.

SMILES | activity change, negative = inhibition | Potency
O=C(O)CCC(=O)Nc1ccc(N2CCCCCC2)cc1 | inactive: 1.57% | 
C=CCn1c(SCC(=O)N2CCN(C(=O)c3ccco3)CC2)nc2sc(CC)cc2c1=O |  | inconclusive: 10 µM [rising, partial curve]
CCn1c(SCc2nc3ccccc3c(=O)[nH]2)nc2ccccc2c1=O |  | active: 2.51 µM
CC(C)CN(C(=O)COC(=O)CCc1c[nH]c2ccccc12)C1CCS(=O)(=O)C1 (configuration not stated) | inactive: -9.05% | 
CS(=O)(=O)N1CCc2cc(C(=O)OCC(=O)c3ccccc3)ccc21 |  | inconclusive: 15.8 µM [falling, single point]
COc1ccc2c(c1OC)C(=O)N1C(C(=O)O)Cc3c([nH]c4ccccc34)C21 (configuration not stated) |  | inconclusive: 20 µM [rising, single point]
O=C(NCCN1CCOCC1)c1cc(-c2ccc(F)cc2)on1 |  | inconclusive: 0.501 µM [rising, full curve, poor fit]
COc1cccc(NC(=O)NCCCN2CCN(c3ccc(F)cc3)CC2)c1 |  | inconclusive: 6.31 µM [falling, full curve, poor fit]
COc1ccc(-c2noc(COc3ccccc3OC)n2)cc1OC |  | inconclusive: 10 µM [rising, partial curve]
COC(=O)C1=C2SC(C)C(=O)N2C(N)=C(C#N)C1c1cc(OC)c(OC)c(OC)c1 (configuration not stated) | inconclusive: -5.01% | 
CCCn1c(C)cc(=O)c2cc(NC(=O)c3cnccn3)ccc21 |  | inconclusive: 6.31 µM [rising, partial curve]
CCOc1cc(C2C3=C(CCCC3=O)N(C)C3=C2C(=O)CCC3)cc(Cl)c1O | inactive: 14.2% | 
OC(COCC1COc2ccccc2O1)CN1CCN(c2ccccn2)CC1 (configuration not stated) |  | inconclusive: 0.1 µM [falling, single point]
COc1ccc(-n2c(N)c(C(=O)NCc3ccco3)c3nc4ccccc4nc32)c(OC)c1 |  | inconclusive: 10 µM [rising, partial curve]
O=C(O)[C@H]1CCCNC1 | inactive | 
COc1ccc(CCN2C(=O)CC(C(N)=O)SC2=Nc2ccccc2)cc1OC (configuration not stated) | inactive: 8.02% | 
Cc1sc(NC(=O)CSc2nnc(COc3ccc(Cl)cc3)n2C)c(C#N)c1C | inconclusive: 6.78% | 
COc1cc(-c2nnc(-c3cccnc3)o2)cc(OC)c1OC |  | inconclusive: 12.6 µM [rising, partial curve]
Cc1cccc(-c2cc3nc4c(c(N5CCCC(O)C5)n3n2)CCC4)c1 (configuration not stated) |  | active: 12.6 µM
COc1cccc(C(=O)N(Cc2nc(-c3cccc(C)c3)no2)C(C)C)c1OC | inconclusive: -11% | 
NC(=O)CN1CCN(C(=O)NC2CCCCC2)CC1 | inactive: 5.47% | 
Cc1noc(C)c1COC(=O)c1ccccc1Oc1ccccc1 |  | inconclusive: 25.1 µM [rising, single point]
COc1ccc(C)cc1NC(=O)CSc1nnc(-c2ccc(Br)cc2)o1 | inactive: 3.43% | 
CCCn1c(SCc2cc(=O)[nH]c3ccccc23)nc2c1c(=O)n(C)c(=O)n2C | inactive: 18.1% | 
CC(O)CNc1nc2c(c(=O)n(C)c(=O)n2C)n1C/C=C/c1ccccc1 (configuration not stated) |  | inconclusive: 12.6 µM [rising, single point]
O=S(=O)(c1ccccc1)N1CCN(C2CCN(Cc3ccccc3)CC2)CC1 | inactive: -2.69% | 

SMILES | activity change, negative = inhibition | Potency
N#CC1=C(N)C(C#N)(C#N)C(c2cccnc2)C2CCCC=C12 (configuration not stated) |  | inconclusive: 10 µM [falling, partial curve]
CCN(CC)CCCNc1nc2ccccc2[nH]1 |  | inconclusive: 10 µM [rising, single point]
Cc1ccc(-c2nc3ccccc3[nH]2)s1 | inactive: 14.2% | 
C=C(C)[C@H]1CC=C(C)C(=O)C1 | inconclusive: -10.9% | 
Cc1ccc2cc(C)c(N3CCN(c4ccccn4)CC3)nc2c1 |  | inconclusive: 10 µM [rising, partial curve]
Cc1ccc(-c2cc(C(=O)N3CCOCC3)c3ccccc3n2)cc1 |  | inconclusive: 3.16 µM [falling, full curve]
Cc1nn(-c2ccccc2)c2[nH]c(C(F)(F)F)cc(=O)c12 |  | inconclusive: 12.6 µM [rising, single point]
O=C(CN1CCOCC1)NCc1ccccc1 | inconclusive: -7.21% | 
COc1ccc2nc(NC(=O)Cc3ccc(OC)c(S(=O)(=O)N4CCOCC4)c3)sc2c1 |  | inconclusive: 3.98 µM [rising, partial curve]
N#Cc1cccc(-c2cc(NCc3ccccc3)ncn2)c1 |  | inconclusive: 12.6 µM [rising, partial curve]
Cc1cc(C(=O)Nc2ccc(S(=O)(=O)N3CCCC3)cc2)cs1 | inconclusive: 7.3% | 
NCC[C@H](O)C(=O)N[C@H]1C[C@@H](N)[C@@H](O[C@H]2O[C@@H](CN)[C@@H](O)[C@@H](O)[C@@H]2O)[C@@H](O)[C@@H]1O[C@H]1O[C@@H](CO)[C@@H](O)[C@@H](N)[C@@H]1O | inactive: 1.7% [at 17.1 µM] | 
Cn1c2ccccc2c2ncn(Cc3ccco3)c(=O)c21 |  | active: 10 µM
CC1CN(C(=O)c2cccc(S(=O)(=O)N3CCOCC3)c2)CC(C)O1 (configuration not stated) | inactive: -3.54% | 
Cc1ccc(-n2nnnc2SCc2nnc(-c3ccccc3Br)o2)c(C)c1 |  | inconclusive: 0.794 µM [rising, full curve]
COc1nc(-c2ccccc2)ccc1-c1noc(-c2ccccc2F)n1 | inactive: 0.388% | 
COc1cccc(-n2nnc3c(=O)n(Cc4cccc(C)c4)cnc32)c1 |  | active: 10 µM
O=C(COC(=O)C1=COCCO1)Nc1ncc(C(F)(F)F)cc1Cl |  | inconclusive: 0.0631 µM [falling, full curve]
COc1ccc(OC)c(C2SCCN2S(=O)(=O)c2cccc(C(F)(F)F)c2)c1 (configuration not stated) | inconclusive: 3.82% | 
CCSc1nc2c(c(=O)[nH]c(=O)n2C)n1Cc1ccc(Cl)cc1 |  | inconclusive: 2.51 µM [rising, full curve, poor fit]
COc1ccc(C2CCCN2C(=O)c2cccs2)cc1 (configuration not stated) | inactive: 0.411% | 
COc1cc(-c2nnc3sc(Cc4ccc(Cl)cc4)nn23)cc(OC)c1OC |  | active: 2.51 µM
O=C(Oc1ccnc2cc(Cl)ccc12)N1CCOCC1 |  | inconclusive: 1 µM [rising, single point]
COC(=O)c1[nH]c2ccccc2c1NC(=O)CN1CCCCCC1 | inactive: -7.05% | 
CCn1cc(C(=O)NCCCOC)c(=O)c2cc(S(=O)(=O)N(C)C)ccc21 | inactive: 15.7% | 
CCOC(=O)c1[nH]c(C)c(C(=O)NCc2cccnc2)c1C | inactive: 10.3% | 

SMILES | activity change, negative = inhibition | Potency
COCCNC(=O)c1ccccc1-c1nc(-c2ccccc2OC)no1 |  | inconclusive: 1 µM [falling, full curve, poor fit]
Cc1ccc(Cn2nnc3c(=O)n(CC(=O)N4CCCc5ccccc54)cnc32)cc1 | inconclusive: -2.68% | 
COc1nnc(-c2ccc(N3CCOCC3)c(NC(C)=O)c2)c2ccccc12 |  | inconclusive: 10 µM [rising, partial curve]
COc1ccccc1-c1nnc2n1N=C(C)CS2 | inactive: 2.14% | 
c1ccc2c(c1)[nH]c1nc(SCCN3CCOCC3)nnc12 |  | inconclusive: 12.6 µM [rising, single point]
Nc1ccn([C@H]2O[C@H](CO)[C@@H]3[O][Sn]([c]4ccccc4)([c]4ccccc4)[O][C@H]32)c(=O)n1 | inactive: -20.9% [at 7.6 µM] | 
CCn1c(=O)cc(OCC(=O)NCC2CCCO2)c2ccccc21 (configuration not stated) |  | inconclusive: 10 µM [rising, single point]
CN(C)CCCOC(=O)Cc1ccc(Cl)cc1 | inconclusive: -3.84% | 
O=C(c1cc2ccccc2o1)N1CCN(c2ccccc2Cl)CC1 | inactive: 4.7% | 
CN1C(=O)NC(c2cccc(O)c2)C(C(=O)c2cccs2)C1(O)C(F)(F)F (configuration not stated) | inactive: -8.87% | 
Cc1csc2nc(CSc3nncn3-c3ccccc3)c(Br)n12 |  | inconclusive: 25.1 µM [rising, single point]
COc1ccc(C2(C(=O)NCCCN(C)C)CCOCC2)cc1 | inactive: 0.849% | 
Cc1cc(O)c(C(C)C)cc1NS(=O)(=O)c1ccccc1 | inactive: 1.93% | 
Cn1c(C(=O)NCCN2CCCCCC2)cc2c(=O)n(C)c3ccccc3c21 |  | inconclusive: 7.94 µM [rising, partial curve]
COC(=O)c1ccc(NC(=O)CN2CCN(S(=O)(=O)c3cc(Cl)ccc3OC)CC2)cc1 |  | inconclusive: 5.01 µM [falling, partial curve]
Cc1cc(C(=O)CSc2nncs2)c(C)n1-c1c(C)n(C)n(-c2ccccc2)c1=O | inactive: -7.39% | 
NC(=Nc1ccccc1)NC(=O)c1nc(Cl)c(N)nc1N |  | inconclusive: 15.8 µM [rising, partial curve]
CCCCn1c(CN2CCN(c3cccc(Cl)c3)CC2)nc2c1c(=O)n(C)c(=O)n2C | inconclusive: 22.8% | 
Cc1cccc(S(=O)(=O)Nc2nc3ccccc3nc2NCc2ccco2)c1 |  | inconclusive: 10 µM [rising, single point]
CC(C)C[C@H](NC(=O)N1CCCCCC1)C(=O)N[C@H](Cc1cn(C)c2ccccc12)C(=O)N[C@H](Cc1ccccn1)C(=O)O | inconclusive: 2.58% | 
CSc1ncccc1C(=O)OCC(=O)c1cc2ccccc2o1 |  | inconclusive: 3.98 µM [falling, partial curve]
CCN1C(=O)/C(=C/N(C)C)c2ccccc21 |  | inconclusive: 10 µM [rising, partial curve]
CCOc1ccc(NC(=O)c2ccco2)cc1 |  | inconclusive: 0.316 µM [rising, partial curve, poor fit]
COc1ccc(Cc2nnc3n2N=C(c2cc4ccccc4o2)CS3)cc1OC |  | active: 3.16 µM
O=C(O)CC(CC(=O)O)C(=O)O | inconclusive: 2.07% [at 7.6 µM] | 
